# In PubChem BioAssay (Tox21):
# Where “and” joins values, the source holds several entries; their conditions need not be identical. Equal entries are not always repeated. Calls of active or inactive are those of the source. Unless noted, the call rests on the fitted dose curve; in most records, active means well fitted curve in the direction sought with a large enough effect in the repeat runs; inconclusive means weak or mixed curves; inactive means no such curve, though single readings can be large; an effect the other way counts as inactive or inconclusive.
# Experiments:
# [1] = qHTS assay for small molecule agonists of the p53 signaling pathway (AID 651631; calls by dose curve; further: nearly all actives have a fitted effect of over 15% in size; further: potency means the concentration at half of the fitted maximal effect; on activation: on the % scale 0 is the no-effect control and ±100 the full control effect); conditions: HCT-116 p53RE-bla reporter, beta-lactamase FRET ratio, 16 h
# Method in brief: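 HCT-116 p53RE-bla reporter line, 16 h compound treatment at 37 °C, then fluorescence after 2 h with B/G FRET substrate.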
# [2] = qHTS assay for small molecule agonists of the p53 signaling pathway - cell viability (AID 651633; calls by dose curve; further: potency means the concentration at half of the fitted maximal effect; nearly all actives have a fitted effect of over 30% in size)
# Method in brief: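 Viability counter-read: CellTiter-Glo luminescence (30 min, room temperature) in the same p53RE-bla plates. These plates had been exposed to compounds for 16 h at 37 C.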
# [3] = qHTS assay for small molecule disruptors of the mitochondrial membrane potential (AID 720635); conditions: HepG2 mitochondrial membrane potential, Mito-MPS dye ratio; ratio activity, negative = MMP loss: at 83.2 µM (top of the series) unless noted; further: on the % scale 0 is the no-effect control and ±100 the full control effect
# Method in brief: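 Mitochondrial membrane potential tracked with Mito-MPS dye, red aggregates (ex 540/em 590 nm) against green monomers (ex 490/em 535 nm). Compound treatment 1 hr at 37C, dye 30 min in HepG2.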
# [4] = biological target: Glucocorticoid receptor (Homo sapiens) (UniProt P04150); test: qHTS assay to identify small molecule antagonists of the glucocorticoid receptor (GR) signaling pathway (AID 720692; active means well fitted inhibition curve with a large enough effect in the signal ratio in the repeat runs, not every such curve was filed as active; inconclusive means weak or mixed curves, or effect the other way; inactive means no such curve, though single readings can be large or run the other way; the % refers to the signal ratio; further: potency means the concentration at half of the fitted maximal effect; on activity change, negative = inhibition: on the % scale 0 is the no-effect control and ±100 the full control effect); conditions: GR-bla HeLa, beta-lactamase FRET ratio, dexamethasone-stimulated, 18 h; activity change, negative = inhibition: at 58.5 µM (top of the series) unless noted
# Method in brief: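 Dexamethasone (5 nM final) stimulated a stably integrated GRE-beta-lactamase reporter in HeLa cells during 18 h co-incubation with compounds; signal was quantified as fluorescence intensity of B/G FRET substrate after 2 h.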
# [5] = qHTS assay for identifying genotoxic compounds that show differential cytotoxicity against isogenic chicken DT40 cell lines with known DNA damage response pathways - wild type cell line (AID 743012); conditions: DT40 wild type chicken cells viability, CellTiter-Glo, 40 h; activity change, negative = cytotoxicity: at 68.4 µM (top of the series) unless noted; further: nearly all actives have a fitted effect of over 60% in size; further: potency means the concentration at half of the fitted maximal effect
# Method in brief: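 Using parental DT40 (300 cells/well), compounds delivered in DMSO incubate 40 h at 37 C/5% CO2. CellTiter-Glo reagent then stands 30 min at room temperature, and luminescence gives cell viability.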
# [6] = qHTS assay to identify small molecule antagonists of the androgen receptor (AR) signaling pathway - cell viability counter screen (AID 743033; further: potency means the concentration at half of the fitted maximal effect; nearly all actives have a fitted effect of over 45% in size)
# [7] = qHTS assay to identify small molecule antagonists of the thyroid receptor (TR) signaling pathway - cell viability counter screen (AID 743064); conditions: GH3.TRE-Luc viability, CellTiter-Fluor, 24 h; activity change, negative = cytotoxic: at 70.3 µM (top of the series) unless noted; further: nearly all actives have a fitted effect of over 50% in size; further: potency means the concentration at half of the fitted maximal effect; on activity change, negative = cytotoxic: on the % scale 0 is the no-effect control and ±100 the full control effect
# Method in brief: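 Plate GH3.TRE-Luc cells; incubate 4 h at 37 °C; add compound, then T3 to 1 nM final; incubate 23.5 h; add CellTiter-Fluor; incubate 30 min at 37 °C, 5% CO2; read fluorescence.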
# [8] = biological target: Estrogen receptor (Homo sapiens) (UniProt P03372); test: qHTS assay to identify small molecule antagonists of the estrogen receptor alpha (ER-alpha) signaling pathway (AID 743069; active means well fitted curve in the direction sought with a large enough effect in the signal ratio in the repeat runs, not every such curve was filed as active; inconclusive means weak or mixed curves, or effect the other way; inactive means no such curve, though single readings can be large or run the other way; the % refers to the signal ratio; further: potency means the concentration at half of the fitted maximal effect); conditions: HEK293 ER-alpha-UAS-bla, beta-lactamase ratio, antagonist mode; activity, negative = inhibition: at 69.4 µM (top of the series) unless noted
# Method in brief: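 ER-alpha-UAS-bla GripTite HEK293 line; 2% charcoal-stripped FBS overnight; plated, 4 hr 37C/5% CO2; cpd in DMSO + 17beta-estradiol, 18 hr 37C; LiveBLAzer B/G FRET substrate 2 hr RT; fluorescence intensity.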
# [9] = qHTS assay to identify small molecule antagonists of the estrogen receptor alpha (ER-alpha) signaling pathway - cell viability counter screen (AID 743074; calls by dose curve;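 further: HEK293 cells carrying ER-alpha-UAS-bla reporter stimulated with 17beta-estradiol; potency means the concentration at half of the fitted maximal effect; nearly all actives have a fitted effect of over 45% in size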)
# [10] = biological target: Estrogen receptor (Homo sapiens) (UniProt P03372); test: qHTS assay to identify small molecule agonists of the estrogen receptor alpha (ER-alpha) signaling pathway using the BG1 cell line (AID 743079); conditions: BG1Luc4E2 cells, ERE-luciferase agonist, 22 h; activation: at 70.3 µM (top of the series) unless noted; further: potency means the concentration at half of the fitted maximal effect; nearly all actives have a fitted effect of over 20% in size
# [11] = qHTS assay to identify small molecule that activate the aryl hydrocarbon receptor (AhR) signaling pathway - cell viability counter screen (AID 743086);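 further: HepG2 liver cells carrying the AhR DRE luciferase reporter; on the % scale 0 is the no-effect control and ±100 the full control effect; nearly all actives have a fitted effect of over 45% in size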
# Method in brief: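 Cytotoxicity counter screen: CellTiter-Fluor signal (30 min, 37 C) in 4000 HepG2 cells/well carrying the DRE-luciferase reporter, following 24 h compound exposure at 37 C.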
# [12] = qHTS assay to identify small molecule antagonists of the glucocorticoid receptor (GR) signaling pathway - cell viability counter screen (AID 720693); conditions: GR-bla HeLa viability, CellTiter-Glo luminescence, 18 h, with 5 nM dexamethasone present; viability change, negative = cytotoxic: at 58.5 µM (top of the series) unless noted; further: potency means the concentration at half of the fitted maximal effect; nearly all actives have a fitted effect of over 55% in size
# [13] = biological target: Androgen receptor (Homo sapiens) (UniProt P10275); test: qHTS assay to identify small molecule agonists of the androgen receptor (AR) signaling pathway (AID 743036; active means well fitted activation curve with a large enough effect in the signal ratio in the repeat runs, with a control signal flat, not every such curve was filed as active; inconclusive means weak or mixed curves, or effect the other way; inactive means no such curve, though single readings can be large or run the other way; the % refers to the signal ratio; further: potency means the concentration at half of the fitted maximal effect); conditions: HEK293 AR-UAS-bla GripTite, beta-lactamase FRET ratio, 16 h; activation: at 62.4 µM (top of the series) unless noted
# Method in brief: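 Reporter line: GeneBLAzer AR-UAS-bla-GripTite (HEK293). Steps: plate cells, 4 h rest, add compounds, 16 h at 37C, add LiveBLAzer B/G substrate, 2 h at RT, read fluorescence.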
# [14] = qHTS assay to identify small molecule antagonists of the thyroid receptor (TR) signaling pathway (AID 743065); further: potency means the concentration at half of the fitted maximal effect; nearly all actives have a fitted effect of over 55% in size
# Method in brief: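 Antagonism measured as loss of luciferase signal in GH3 cells stably carrying a TRE-luciferase reporter, co-treated with compound and T3 (1 nM final) for 23.5 h at 37 C. Viability was read in the same well by CellTiter-Fluor.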
# [15] = biological target: Estrogen receptor (Homo sapiens) (UniProt P03372); test: qHTS assay to identify small molecule agonists of the estrogen receptor alpha (ER-alpha) signaling pathway (AID 743075; calls by dose curve;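 further: HEK293 GripTite cells with ER-alpha and UAS-driven beta-lactamase reporter; potency means the concentration at half of the fitted maximal effect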); conditions: HEK293 ER-alpha-UAS-bla, beta-lactamase FRET ratio, 18 h; activation: at 70.1 µM (top of the series) unless noted
# [16] = biological target: Acetylcholinesterase (Homo sapiens) (UniProt P22303); test: Acetylcholinesterase (AChE) small molecule antagonists: enzyme-based qHTS assay with human liver microsomes (AID 1347399; calls by dose curve; further: nearly all actives have a fitted effect of over 60% in size; further: potency means the concentration at half of the fitted maximal effect); conditions: Potency: qHTS inhibition
# Method in brief: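 Recombinant human AChE (50 mU/mL in the enzyme mix) and human liver microsomes (0.25 mg/mL final) were preincubated with compound and NADPH (0.25 mg/mL final) for 30 min at 37 C. Acetylthiocholine/DTNB was then added; thiocholine was read colorimetrically after 10 min at room temperature.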
# [17] = activation: at 73.3 µM (top of the series) unless noted
# Tags describe the fitted curve by direction and shape or compound fluorescence and quenching.
# UniProt P03372, sequence (P03372 whole entry, looked up): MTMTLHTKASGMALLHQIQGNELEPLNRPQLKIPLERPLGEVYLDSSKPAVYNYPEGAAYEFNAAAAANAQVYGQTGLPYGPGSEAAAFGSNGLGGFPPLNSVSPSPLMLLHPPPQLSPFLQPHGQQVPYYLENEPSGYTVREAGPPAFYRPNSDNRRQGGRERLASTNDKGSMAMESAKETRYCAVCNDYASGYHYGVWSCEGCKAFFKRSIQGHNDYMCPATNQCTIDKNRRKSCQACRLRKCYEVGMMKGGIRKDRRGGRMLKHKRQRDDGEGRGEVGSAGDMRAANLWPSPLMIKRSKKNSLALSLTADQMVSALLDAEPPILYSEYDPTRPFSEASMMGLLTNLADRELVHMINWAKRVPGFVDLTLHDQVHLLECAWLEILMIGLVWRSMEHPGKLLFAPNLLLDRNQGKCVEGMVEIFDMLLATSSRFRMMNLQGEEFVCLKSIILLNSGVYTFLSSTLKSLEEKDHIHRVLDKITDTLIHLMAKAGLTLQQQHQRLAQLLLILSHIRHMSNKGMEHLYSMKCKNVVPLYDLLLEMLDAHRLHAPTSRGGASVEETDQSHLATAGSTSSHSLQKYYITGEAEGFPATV
# UniProt P04150, sequence (P04150 whole entry, looked up): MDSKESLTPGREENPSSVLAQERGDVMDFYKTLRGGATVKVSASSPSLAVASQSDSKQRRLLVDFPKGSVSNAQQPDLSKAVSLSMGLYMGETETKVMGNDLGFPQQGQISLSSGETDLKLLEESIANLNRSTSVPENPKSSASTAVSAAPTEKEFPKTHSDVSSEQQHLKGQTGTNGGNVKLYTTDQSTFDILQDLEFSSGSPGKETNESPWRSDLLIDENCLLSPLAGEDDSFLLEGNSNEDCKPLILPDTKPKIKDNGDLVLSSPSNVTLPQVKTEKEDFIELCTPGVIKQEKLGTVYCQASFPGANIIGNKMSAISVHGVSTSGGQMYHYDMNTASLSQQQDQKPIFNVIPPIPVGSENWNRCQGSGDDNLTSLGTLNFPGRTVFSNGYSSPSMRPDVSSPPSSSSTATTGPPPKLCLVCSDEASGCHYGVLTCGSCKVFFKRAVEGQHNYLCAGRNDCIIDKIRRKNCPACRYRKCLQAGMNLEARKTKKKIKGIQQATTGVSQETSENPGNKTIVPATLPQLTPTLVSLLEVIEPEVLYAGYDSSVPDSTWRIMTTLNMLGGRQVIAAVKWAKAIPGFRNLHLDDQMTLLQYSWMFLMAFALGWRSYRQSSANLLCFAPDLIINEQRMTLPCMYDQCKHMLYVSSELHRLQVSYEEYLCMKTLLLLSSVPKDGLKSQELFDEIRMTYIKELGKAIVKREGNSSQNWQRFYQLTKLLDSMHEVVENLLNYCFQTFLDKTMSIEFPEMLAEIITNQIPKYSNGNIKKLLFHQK
# UniProt P22303, sequence (P22303 whole entry, looked up): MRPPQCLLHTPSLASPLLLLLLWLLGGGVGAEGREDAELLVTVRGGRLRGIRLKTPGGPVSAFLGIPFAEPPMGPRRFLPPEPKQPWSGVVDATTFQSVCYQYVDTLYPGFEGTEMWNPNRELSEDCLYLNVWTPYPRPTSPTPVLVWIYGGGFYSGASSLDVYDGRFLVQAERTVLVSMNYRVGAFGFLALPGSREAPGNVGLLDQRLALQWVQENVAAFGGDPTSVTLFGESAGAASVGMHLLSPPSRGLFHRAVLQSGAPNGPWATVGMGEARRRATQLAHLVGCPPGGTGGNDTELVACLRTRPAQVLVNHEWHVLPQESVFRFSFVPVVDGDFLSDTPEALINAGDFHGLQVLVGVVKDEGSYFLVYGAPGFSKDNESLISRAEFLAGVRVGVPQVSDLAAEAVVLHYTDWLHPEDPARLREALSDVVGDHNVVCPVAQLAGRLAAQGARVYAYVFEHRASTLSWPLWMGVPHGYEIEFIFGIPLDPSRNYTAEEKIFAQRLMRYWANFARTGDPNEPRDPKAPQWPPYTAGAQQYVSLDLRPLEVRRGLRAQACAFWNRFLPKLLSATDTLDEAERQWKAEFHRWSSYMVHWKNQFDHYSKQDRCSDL
# UniProt P10275, sequence (P10275 whole entry, looked up): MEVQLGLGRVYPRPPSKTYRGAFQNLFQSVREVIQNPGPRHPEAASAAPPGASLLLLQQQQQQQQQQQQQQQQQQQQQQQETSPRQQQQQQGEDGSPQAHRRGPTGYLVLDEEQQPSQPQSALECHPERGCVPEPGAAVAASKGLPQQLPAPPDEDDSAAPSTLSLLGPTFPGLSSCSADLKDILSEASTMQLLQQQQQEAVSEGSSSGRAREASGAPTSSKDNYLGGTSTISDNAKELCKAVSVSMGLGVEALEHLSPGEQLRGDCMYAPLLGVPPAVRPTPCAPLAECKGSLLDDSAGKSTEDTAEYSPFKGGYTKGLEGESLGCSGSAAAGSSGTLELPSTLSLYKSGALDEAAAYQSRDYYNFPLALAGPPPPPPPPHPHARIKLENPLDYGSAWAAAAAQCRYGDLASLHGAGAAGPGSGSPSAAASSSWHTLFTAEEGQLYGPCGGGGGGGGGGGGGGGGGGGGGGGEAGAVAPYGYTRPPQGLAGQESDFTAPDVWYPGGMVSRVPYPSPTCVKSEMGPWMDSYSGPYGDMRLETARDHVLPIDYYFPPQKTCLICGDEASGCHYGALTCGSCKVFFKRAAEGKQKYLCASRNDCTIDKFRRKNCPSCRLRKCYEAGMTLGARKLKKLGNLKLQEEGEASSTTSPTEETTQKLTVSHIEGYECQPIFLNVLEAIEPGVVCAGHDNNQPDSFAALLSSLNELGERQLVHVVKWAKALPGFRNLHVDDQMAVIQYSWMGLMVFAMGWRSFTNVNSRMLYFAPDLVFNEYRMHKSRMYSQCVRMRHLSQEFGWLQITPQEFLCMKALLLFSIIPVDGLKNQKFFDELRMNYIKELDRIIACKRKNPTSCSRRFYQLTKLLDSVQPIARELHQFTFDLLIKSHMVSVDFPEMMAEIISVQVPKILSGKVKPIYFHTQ
structure (smiles),measurement,setting,value
CCCCCCC(=O)O[C@H]1CC[C@H]2[C@@H]3CC[C@H]4CC(=O)C=C(C)[C@]4(C)[C@H]3CC[C@]12C,Potency,[1]; [17],"inconclusive: 29.8 µM [falling, partial curve]"
same,Potency,[2],"inconclusive: 33.5 µM [cytotoxic, single point]"
same,"ratio activity, negative = MMP loss",[3],inconclusive: 7.44%
same,"activity change, negative = inhibition",[4],inconclusive: 11.8%
same,Potency,[5],"inconclusive: 13.3 µM [cytotoxic, single point]"
same,Potency,[6],"inconclusive: 0.338 µM [rising, full curve, poor fit]"
same,Potency,[7],inactive
same,Potency,[8],"inconclusive: 9.52 µM [activator, full curve]"
same,Potency,[9],"inconclusive: 15.1 µM [cytotoxic, single point]"
same,Potency,[10],active: 2.11 µM
same,Potency,[11],inactive
CC(C)CCC(=O)O[C@H]1CC[C@H]2[C@@H]3CCC4=CC(=O)CC[C@]4(C)[C@H]3CC[C@]12C,Potency,[1]; [17],"inconclusive: 37.6 µM [falling, single point]"
same,Potency,[2],"inconclusive: 33.5 µM [cytotoxic, single point]"
same,"ratio activity, negative = MMP loss",[3],inconclusive: -22.5%
same,Potency,[4],active: 6.01 µM
same,Potency,[12],"inconclusive: 16.9 µM [cytotoxic, partial curve]"
same,Potency,[13],active: 0.0107 µM
same,Potency,[7],active: 33.5 µM
same,Potency,[14],active: 29.8 µM
same,Potency,[8],"inconclusive: 8.49 µM [activator, partial curve]"
same,Potency,[15],active: 4.77 µM [inconclusive]
Nc1cccc(C(F)(F)F)c1,Potency,[1]; [17],inactive
O=C1c2ccccc2C(=O)N1CCc1noc(-c2ccc(CN3CCCCCC3)s2)n1,Potency,[16],"inconclusive: 58 µM [falling, partial curve]"
O=C(OCCN1CCCCC1)C(O)(c1ccccc1)c1ccccc1,Potency,[1]; [17],"inconclusive: 13.3 µM [falling, single point]"
same,"ratio activity, negative = MMP loss",[3],inconclusive: 37.2%
CC(C)(O)[C@@H]1[C@H]2OC(=O)[C@@H]1[C@]1(O)C[C@H]3O[C@]34C(=O)O[C@H]2[C@]14C,activation,[1]; [17],inconclusive: 0.667%
same,activation,[1]; at 73.3 µM (top of the series),inactive: -1.9%
same,"ratio activity, negative = MMP loss",[3],inconclusive: 1.31% and inconclusive: 17.6%
same,Potency,[5],inactive
same,Potency,[7],"inconclusive: 26.6 µM [rising, single point]"
O=C(Nc1ccccc1)OCC(CN1CCCCC1)OC(=O)Nc1ccccc1 (stereo unspecified),Potency,[16],inactive
